In PubChem BioAssay AID1645887 (National Center for Advancing Translational Sciences (NCATS), 2021):
Where “and” joins values, the source holds several entries; their conditions need not be identical. Equal values may be shown once. Screen size: about 16,000 compounds; about 40 (0.2%) were called active. About 1% were inconclusive and are not listed. Calls come from the whole dose curve; as a rule, active = well fitted activation curve with a large enough effect; inconclusive = small, poorly fitted or top-dose-only effect, or another doubt; inactive = no such curve, though single readings can be large or run the other way. The list shows a part of the results. Residues, ends and D or L forms follow the SMILES beside them.

These compounds were tested against Rap guanine nucleotide exchange factor 4 (Homo sapiens) (UniProt Q8WZA2) (assay: Validation qHTS for agonist of cAMP-regulated guanine nucleotide exchange factor 4 (EPAC2)). Settings: EPAC2 Rap1B BODIPY-GDP exchange, fluorescence; activation: hits give high values.
UniProt Q8WZA2, sequence (Q8WZA2 whole entry, looked up): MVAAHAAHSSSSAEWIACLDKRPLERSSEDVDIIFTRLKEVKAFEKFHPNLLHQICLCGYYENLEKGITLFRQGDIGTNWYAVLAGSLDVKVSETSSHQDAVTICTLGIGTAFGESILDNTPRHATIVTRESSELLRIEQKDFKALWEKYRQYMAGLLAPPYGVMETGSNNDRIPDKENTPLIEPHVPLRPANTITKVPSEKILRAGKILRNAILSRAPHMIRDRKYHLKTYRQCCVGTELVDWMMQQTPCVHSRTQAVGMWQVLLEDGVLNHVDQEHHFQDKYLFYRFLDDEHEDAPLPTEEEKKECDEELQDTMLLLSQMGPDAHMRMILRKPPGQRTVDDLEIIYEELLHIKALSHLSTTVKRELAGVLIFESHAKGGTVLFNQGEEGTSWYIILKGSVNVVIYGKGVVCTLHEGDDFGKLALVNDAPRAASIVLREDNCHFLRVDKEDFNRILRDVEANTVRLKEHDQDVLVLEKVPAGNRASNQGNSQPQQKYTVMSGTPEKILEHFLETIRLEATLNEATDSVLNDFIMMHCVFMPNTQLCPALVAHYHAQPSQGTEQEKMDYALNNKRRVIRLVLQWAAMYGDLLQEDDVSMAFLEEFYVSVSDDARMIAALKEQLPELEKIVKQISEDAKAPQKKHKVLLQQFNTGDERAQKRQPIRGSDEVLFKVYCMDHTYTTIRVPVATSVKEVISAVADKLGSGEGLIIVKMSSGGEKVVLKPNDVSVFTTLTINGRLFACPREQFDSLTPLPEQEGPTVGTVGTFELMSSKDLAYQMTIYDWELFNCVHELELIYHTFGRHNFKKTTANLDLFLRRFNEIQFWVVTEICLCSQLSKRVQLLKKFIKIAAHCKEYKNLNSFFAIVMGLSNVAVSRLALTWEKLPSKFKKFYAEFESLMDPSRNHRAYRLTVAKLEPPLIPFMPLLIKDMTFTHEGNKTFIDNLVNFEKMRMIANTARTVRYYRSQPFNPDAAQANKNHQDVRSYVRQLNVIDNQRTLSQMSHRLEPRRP
Outline: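 Fluorescent exchange assay: 100 nM EPAC2 with 250 nM RAP1B-BODIPY-GDP and 50 uM GDP; compound added, 5 min at room temperature, then read (ex 480/em 540 nm) every 5 min for 30 min. Normalized to 6.5 mM cAMP agonist control.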
% is set by controls: 0 for no effect and ±100 for the full control effect.
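Note: exchange makes BODIPY-GDP fluorescence drop when released from Rap1B; series mostly up to about 150 µM.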

activation, inactive:
COc1ccc2c(c1)O[C@@H]1c3ccc(OC)cc3OCC21 (stereo partly specified) 1.61%
CC(=O)[C@@]1(O)CC[C@H]2[C@@H]3C=C(Cl)C4=CC(=O)[C@@H]5C[C@@H]5[C@]4(C)[C@H]3CC[C@@]21C -9.31%
CO[C@@H]1[C@@H](O[C@@H]2O[C@H](C)[C@@H](O[C@H]3C[C@@](C)(O)[C@@H](OC(=O)CC(C)C)[C@H](C)O3)[C@H](N(C)C)[C@H]2O)[C@@H](CC=O)C[C@@H](C)[C@@H](O)/C=C/C=C/C[C@@H](C)OC(=O)C[C@H]1O 8.54% and 1.24%
C[C@@H](NCCCc1cccc(C(F)(F)F)c1)c1cccc2ccccc12 -0.068%
CC(C)c1c(C(=O)NCc2cccnc2)cnn1-c1nccc(-c2ccccc2F)n1 2.49%
CN(Cc1ccco1)c1ccnc(-c2ccccc2C(F)(F)F)n1 -0.112%
COc1cc(=O)n2c(c1C(=O)NCc1ccco1)CCN(Cc1cccc(Cl)c1)CC2 -4.44%
Oc1cc2c(cc1O)[C@H]1c3ccc(O)c(O)c3OC[C@@]1(O)C2 -7.82%
C=CC(N)CCC(=O)O (stereo unspecified) -10.3% and -12.5% and -39.1%
CCCCCCCCCCCCCCCC(=O)OC/C=C(C)/C=C/C=C(C)/C=C/C1=C(C)CCCC1(C)C -35.1% and -27%
NS(=O)(=O)c1cc(C2(O)NC(=O)c3ccccc32)ccc1Cl (stereo unspecified) -18% and -7.81%
CC(C)N(CCO)Cc1nc(N2CCOCC2)c2cc(Cl)ccc2n1 -1.5%
COc1ccc(-c2nc3cnc(Nc4cccc(OC)c4)nc3n(C)c2=O)cc1 2.93%
COS(C)(=O)=O -4.11%
Cc1cc(C)nc(S[C@H]2C[C@@H](C(=O)N3CCN(c4ccccc4F)CC3)N(Cc3ccccc3F)C2)n1 3.12%
O=C(c1ccncc1)N1CCC2(CCCN(C(c3ccccc3)c3ccccc3)C2)CC1 -12.9%
COc1ccccc1CNc1ccnc(-c2ccc3c(c2)OCO3)n1 -0.987%
COc1ccc(Oc2ncc3ncc(=O)n(CCC#N)c3n2)cc1 -7.69%
COc1cc(=O)n2c(c1C(=O)N(C)Cc1nonc1C)CCN(CC1CC=CCC1)CC2 (stereo unspecified) -6.28%
Cc1ccc(C(=O)Nc2cccc(-c3nc(CNC(=O)c4ccc(F)cc4Cl)c(C)o3)c2)s1 3.57%
Cc1cc(=O)c2c(O)c3c(O)cc(=O)c4c3c3c(cc(O)c1c23)C(C)(C)C=4O -27.1% and 6.87%
COCCn1c(=O)c(-c2cc(F)cc(F)c2)nc2cncnc21 -12.1%
O=c1oc2cc(O)ccc2cc1-c1ccc2c(c1)OCCO2 -17.1%
CCN[C@H]1CN(CCCOC)S(=O)(=O)c2sc(S(N)(=O)=O)cc21 -21.4%
Cc1ncc(C[n+]2csc(CCO)c2C)c(N)n1 -10.5%
CC(C)c1c(C(=O)Nc2ccccc2)c(-c2ccccc2)c(-c2ccc(F)cc2)n1CC[C@@H](O)C[C@@H](O)CC(=O)O -32.2%
Cn1cccc1C(=O)N1CCC[C@@]2(CCN(c3ccncc3)C2)C1 2.03%
O=C1c2ccccc2C(=O)C1c1ccc(F)cc1 7.02%
CC(=O)NC(CC(=O)O)C(=O)NC(CCC(=O)O)C(=O)O (stereo not drawn) (Ac-Asp-Glu-OH; configuration not given here) -8.16%
CC[N+](C)(CC)CCOC(=O)C1c2ccccc2Oc2ccccc21 -3.93%
FC(F)(F)C(Cl)Br (stereo unspecified) -29.1%
O=C(O)CN1C(=O)c2cccc3cccc(c23)C1=O -24.4% and -16.5%
CCCCN(CCCC)CCCOC(=O)c1ccc(N)cc1 -12.7% and -3.98%
c1ccc(Nc2nc(-c3cccnc3)nc3ccccc23)cc1 -9.83%
Cc1ccc(C(=O)c2ccc(CC(=O)O)n2C)cc1 8.61% and 2.31%
C/C(=N\O)c1ccc(OCC(=O)N2CCCCC2)cc1 13.4%
CN(C)c1ccc(-c2nccc(Nc3ccc(F)cc3)n2)cc1 -13.4%
COCC(=O)N1CCC2(CC1)CN(Cc1ccccc1OC)C2 -10.1%
CN(C)Cc1ccccc1-c1cncnc1NC1CC1 -17%
C=C1C[C@@]23C[C@@]1(O)CC[C@@H]2[C@]12C=C[C@@H](O)[C@](C)(C(=O)O1)[C@@H]2[C@@H]3C(=O)O 8.89%
CN(C)c1ncc2nc(-c3ccccc3)c(=O)n(C)c2n1 -2.92%
CC(C)c1cc(/C=C(\C#N)C(=O)NCCCc2ccccc2)cc(C(C)C)c1O 13.7%
O=C(O)[C@H]1[C@H]2C[C@H]3c4[nH]c5ccccc5c4CCN3C[C@@H]2CC[C@@H]1O 0.149%
CC(O)CN(CCN(CC(C)O)CC(C)O)CC(C)O (stereo unspecified) -5.22%
O=C(O)CCCCCCCC(=O)O -8.94% and 11.1% and 6.57%
O=C(CCCN1CCN2CCCC2C1)c1ccc(F)cc1 (stereo unspecified) -0.367%
CCCCCCCCCCCCCCCCCCNC(=O)OC1CCN(C(=O)OC[C@H](COC(=O)N(Cc2cccc[n+]2CC)C(=O)c2ccccc2OC)OC)CC1 11%
CC12CCC3C(CC3(C)C)C(C)(CCC1=O)O2 (stereo unspecified) -7.07%
CC1CN(Cc2cccn2-c2cccnc2)Cc2cc(Cl)ccc2O1 (stereo unspecified) -1.89%
Cc1noc(C)c1C(=O)N1CCC2(CC1)CCN(c1ncccn1)CC2 -20.9%
COCC(=O)N1CCC2(CCCN(C(c3ccccc3)c3ccccc3)C2)CC1 -5.39%
Cn1c(=O)c(-c2cccc(F)c2)nc2cncnc21 -0.659%
CCCCCCCCCC(=O)O[C@H](CC(=O)O)C[N+](C)(C)C -7.29%
COC(=O)C[C@H]1c2cc(C(F)(F)F)ccc2S(=O)(=O)N1c1ccc(N(C)C)cc1 -28.3%
NC1(C(=O)O)CCCCC1 -8.07%
CC(=O)C1(C)CC2(CC(C)(C)OC2=O)C(=O)O1 (stereo unspecified) -5.92%
COc1ccccc1CNc1ncncc1-c1ccc(N(C)C)cc1 -12%
CCNC(=O)NCCCOc1cccc(CN2CCCCC2)c1 -1.5%
COc1ccc(-c2ccc(N)[n+](CCCC(=O)O)n2)cc1 -8.16%
CN1CCN(c2ncc3nc(-c4cccc(C#N)c4)c(=O)n(CCC#N)c3n2)CC1 -10.7%
CCCCCCCCCCCCCCCC(=O)OC(C)C -30.5%
COc1ccc(CNc2ccnc(-c3c(C)noc3C)n2)c(OC)c1 0.299%
O=C1C[C@@H]2c3c(cccc3CN1Cc1ccc(F)cc1)C[C@@H](O)[C@H]2O -11.9%
CO[C@H]1C=CO[C@@]2(C)Oc3c(C)c(O)c4c(O)c(c5c(c4c3C2=O)=NC2(CCN(CC(C)C)CC2)N=5)NC(=O)/C(C)=C\C=C/[C@H](C)[C@H](O)[C@@H](C)[C@@H](O)[C@@H](C)[C@H](OC(C)=O)[C@@H]1C 5.91%
O=C(c1cnccn1)N1CCC2(CC1)CN(c1ccccn1)C2 -13.1%
COc1cccc(C(=O)O[C@H]2[C@H](C)NS(=O)(=O)[C@H]3C[C@@H]4C=C[C@]23O4)c1 -7.64%
NNCCc1ccccc1 7.25% and 11.6% and 1.52%
O=C(Oc1ccccc1)N1CCC[C@@]2(CCN(c3ncccn3)C2)C1 -23.8%
CC(C)(C)c1ccc(S(=O)(=O)N[C@H]2CC[C@@H](n3cc(C(=O)N4CCCC4)nn3)CC2)cc1 -21.1%
O=c1c(-c2ccc(Cl)cc2)nc2cncnc2n1Cc1ccccc1 -2.96%
Cc1ccc(C)c(CN2CCc3nnc(CNC(=O)c4cc(C)oc4C)n3CC2)c1 -15.2%
COc1cc(/C=C/C(=O)O[C@H]2CC[C@]34C[C@]35CC[C@]3(C)[C@@H]([C@H](C)CCC=C(C)C)CC[C@@]3(C)[C@@H]5CC[C@H]4C2(C)C)ccc1O -16.4% and -25.7%
COc1cccc(C2(CC(=O)N3CCN(c4nonc4C)CC3)CC(=O)N(C3CCCC3)C2=O)c1 (stereo unspecified) -6.59%
CC(=O)NCCNc1ncnc2ccc(-c3ccc(C(=O)N(C)C)cc3)cc12 -10.2%
CC(NC(=O)c1cc(F)ccc1F)c1nnc2n1CCN(Cc1cccs1)CC2 (stereo unspecified) -10.4%
COc1ccccc1-c1oc2ccccc2c(=O)c1OC 5.99%
CCCc1cc(C(N)=S)ccn1 -2.95%
FC(F)(F)c1ccccc1-c1ccc2ncnc(NC3CC3)c2c1 -23.9%
COCCn1c(=O)c(-c2ccc(OC)cc2)nc2cnc(Oc3ccc(OC)cc3)nc21 -8.43%
Cc1ccc2c(c1)CN(CCNC(=O)c1n[nH]c3c1CCCC3)CC(C)O2 (stereo unspecified) -0.602%
CC(=O)S[C@@H]1CC2=CC(=O)CC[C@]2(C)[C@H]2CC[C@@]3(C)[C@@H](CC[C@@]34CCC(=O)O4)[C@H]12 10.3%
